Source: publication PMC5575267, “A novel function of cIAP1 as a mediator of CHIP-driven eIF4E regulation” (Scientific Reports, 2017)
No constants are given. Whether binding was seen depends on the method and setting. For part of these data: In cells and extracts the contact can be indirect. Some results given as binding are weak or reduced against the parent protein; the word gives no strength. For part of these data: Where a sequence is shown, tags or fusion partners need not be part of it. Values belong to the molecule of their own block, whether it stands above or below them.

The chains behind the UniProt entries cited, without tags or fusion partners. Where a name states a change or a piece, a line headed by the entry shows the natural chain unless it says otherwise.
UniProt Q9UNE7: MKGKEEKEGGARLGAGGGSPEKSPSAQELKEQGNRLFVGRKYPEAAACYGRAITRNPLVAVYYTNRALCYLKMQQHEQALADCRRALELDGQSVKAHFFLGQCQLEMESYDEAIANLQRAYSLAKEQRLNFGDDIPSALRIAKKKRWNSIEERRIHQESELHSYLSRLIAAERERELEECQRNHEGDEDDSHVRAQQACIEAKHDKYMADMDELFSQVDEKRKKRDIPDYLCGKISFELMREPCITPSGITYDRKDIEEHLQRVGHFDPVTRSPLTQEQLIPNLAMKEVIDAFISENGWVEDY
UniProt Q13490: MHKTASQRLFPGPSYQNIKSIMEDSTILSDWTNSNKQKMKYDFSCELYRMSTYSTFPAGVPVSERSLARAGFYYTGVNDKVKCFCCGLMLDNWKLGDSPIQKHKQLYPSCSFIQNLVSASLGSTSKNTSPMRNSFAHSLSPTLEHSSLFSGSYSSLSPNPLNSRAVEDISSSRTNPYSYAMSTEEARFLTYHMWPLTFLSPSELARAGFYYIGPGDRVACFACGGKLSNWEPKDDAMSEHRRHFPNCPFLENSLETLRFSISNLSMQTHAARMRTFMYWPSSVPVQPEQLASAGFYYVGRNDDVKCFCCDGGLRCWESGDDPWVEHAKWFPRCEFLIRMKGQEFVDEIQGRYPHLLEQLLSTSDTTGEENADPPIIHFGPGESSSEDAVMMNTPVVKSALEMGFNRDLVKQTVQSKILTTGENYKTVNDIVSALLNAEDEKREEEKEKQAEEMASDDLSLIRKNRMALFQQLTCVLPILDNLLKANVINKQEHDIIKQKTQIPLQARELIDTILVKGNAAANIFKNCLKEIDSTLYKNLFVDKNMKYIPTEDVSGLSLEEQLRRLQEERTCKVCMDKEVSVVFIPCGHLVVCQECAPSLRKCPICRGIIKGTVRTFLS
UniProt P06730: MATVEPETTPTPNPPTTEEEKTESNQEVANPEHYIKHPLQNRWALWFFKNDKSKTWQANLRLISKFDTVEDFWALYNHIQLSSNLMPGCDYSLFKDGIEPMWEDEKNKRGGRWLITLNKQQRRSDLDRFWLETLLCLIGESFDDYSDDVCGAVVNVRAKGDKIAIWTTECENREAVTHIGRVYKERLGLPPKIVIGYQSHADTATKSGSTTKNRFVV
UniProt Q13489: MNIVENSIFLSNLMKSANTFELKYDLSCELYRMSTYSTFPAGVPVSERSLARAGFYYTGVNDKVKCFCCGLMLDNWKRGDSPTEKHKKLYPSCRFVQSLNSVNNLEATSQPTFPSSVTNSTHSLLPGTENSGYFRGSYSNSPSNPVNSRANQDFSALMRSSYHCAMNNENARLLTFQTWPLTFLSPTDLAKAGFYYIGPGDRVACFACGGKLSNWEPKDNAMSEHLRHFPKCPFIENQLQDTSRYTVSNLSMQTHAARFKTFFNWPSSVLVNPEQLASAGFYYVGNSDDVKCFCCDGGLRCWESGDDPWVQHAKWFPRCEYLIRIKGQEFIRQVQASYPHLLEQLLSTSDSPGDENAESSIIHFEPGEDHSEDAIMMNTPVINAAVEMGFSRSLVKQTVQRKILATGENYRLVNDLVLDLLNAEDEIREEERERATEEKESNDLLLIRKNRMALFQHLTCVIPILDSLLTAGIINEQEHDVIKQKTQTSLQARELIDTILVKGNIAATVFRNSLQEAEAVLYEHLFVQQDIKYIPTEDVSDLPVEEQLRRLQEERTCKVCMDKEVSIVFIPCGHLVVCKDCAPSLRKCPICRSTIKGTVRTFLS
UniProt P98170: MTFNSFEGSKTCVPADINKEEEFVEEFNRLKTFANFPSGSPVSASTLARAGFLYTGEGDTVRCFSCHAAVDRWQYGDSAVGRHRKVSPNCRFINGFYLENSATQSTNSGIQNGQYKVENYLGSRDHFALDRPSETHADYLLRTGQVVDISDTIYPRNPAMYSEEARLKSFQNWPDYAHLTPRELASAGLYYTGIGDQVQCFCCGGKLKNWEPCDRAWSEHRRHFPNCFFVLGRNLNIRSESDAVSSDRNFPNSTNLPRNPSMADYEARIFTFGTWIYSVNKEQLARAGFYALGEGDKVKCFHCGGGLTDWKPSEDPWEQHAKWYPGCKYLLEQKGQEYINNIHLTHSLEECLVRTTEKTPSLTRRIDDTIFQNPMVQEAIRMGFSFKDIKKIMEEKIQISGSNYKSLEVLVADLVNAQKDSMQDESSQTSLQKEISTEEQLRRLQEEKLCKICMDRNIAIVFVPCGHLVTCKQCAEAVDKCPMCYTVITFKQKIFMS

What was measured:
GST-CHIP K30A = GST-CHIP K30A (UniProt Q9UNE7); experiment: pull-down; GST pull-down: GST or GST fusion protein on glutathione beads incubated with 6His-tagged protein in 100 mM Tris pH 8.0, 100 mM NaCl, 2 mM EDTA, 5% glycerol, 2 h at 4 °C; WB with anti-His antibody; both purified
[1] = target: 6Myc-cIAP1 WT (C1) (human) (UniProt Q13490); experiment: co-IP; HEK 293 cells co-transfected with 6Myc-cIAP1 and HA-CHIP WT or K30A; lysate precipitated with anti-Myc antibody, WB with anti-HA antibody
[2] = target: Myc- and His-tagged eIF4E protein (eIF4E-MycHis) (UniProt P06730); experiment: co-IP; HEK 293 cells co-transfected with eIF4E-MycHis and one 6Myc-IAP; lysate precipitated with anti-His antibody, WB with anti-Myc antibody

Molecule: eIF4E-6His (from UniProt P06730 1-217)
binding (GST-CHIP K30A): no binding

Molecule: HA-CHIP WT (from UniProt Q9UNE7 1-303)
binding [1]: binds

B1: 6Myc-ML-IAP (protein, UniProt Q96CA5 1-298)
chain: MGPKDSAKCLHRGPQPSHWAAGDGPTQERCGPRSLGSPVLGLDTCRAWDHVDGQILGQLRPLTEEEEEEGAGATLSRGPAFPGMGSEELRLASFYDWPLTAEVPPELLAAAGFFHTGHQDKVRCFFCYGGLQSWKRGDDPWTEHAKWFPSCQFLLRSKGRDFVHSVQETHSQLLGSWDPWEEPEDAAPVAPSVPASGYPELPTPRREVQSESAQEPGGVSPAEAQRAWWVLEPPGARDVEAQLRRLQEERTCKVCLDRAVSIVFVPCGHLVCAECAPGLQLCPICRAPVRSRVRTFLS
binding [2]: no binding

The remaining lines, values ahead:

binding [1]: binds
Molecule: HA-CHIP K30A (from UniProt Q9UNE7 1-303)

binding [2]: no binding
Molecule: 6Myc-cIAP2 (from UniProt Q13489 1-604)

binding [2]: no binding
Molecule: 6Myc-XIAP (from UniProt P98170 1-497)
